Test results reported in the supplement of paper PMC9446081.
Out of some 39,000 compounds screened, about 220 (0.56%) showed activity. The list shows a part of the results.

System: Escherichia coli K-12 BW25113
Test: relative growth (OD600 normalised to plate interquartile mean) (fraction); higher = less growth inhibition, active = 0.2 or less
Details: 50 µM; LB; incubation time: overnight (16-24 h)
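Note: static incubation at 37 °C against the wild-type strain, values averaged over two biological replicates.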

| Compound | relative growth |
| --- | --- |
| COc1ccc(NC(=O)N(C)C[C@H]2OCCCC[C@@H](C)Oc3ccc(NC(=O)Nc4ccc(C(F)(F)F)cc4)cc3C(=O)N([C@@H](C)CO)C[C@H]2C)cc1 | inactive: 1.02 |
| CN(C)CC(=O)N1CC(=O)N2[C@H](CO)[C@H](c3ccc(C#Cc4cccnc4)cc3)[C@@H]2C1 | inactive: 0.994 |
| C[C@@H]1CN([C@H](C)CO)C(=O)c2cccc(NC(=O)Nc3cccc4ccccc34)c2O[C@@H]1CN(C)S(=O)(=O)c1cccs1 | inactive: 1.01 |
| C[C@@H]1CN([C@H](C)CO)C(=O)c2cc(NC(=O)Cc3ccccc3)ccc2O[C@@H](C)CCCCO[C@@H]1CN(C)Cc1ccc(C(F)(F)F)cc1 | inactive: 1.02 |
| C[C@H]1CN([C@@H](C)CO)C(=O)Cc2cc(NC(=O)Nc3ccc(F)cc3)ccc2O[C@H]1CN(C)C(=O)Nc1ccc(C(F)(F)F)cc1 | inactive: 1.03 |
| C[C@H]1CN([C@@H](C)CO)C(=O)c2cccc(NC(=O)c3ccncc3)c2O[C@@H]1CN(C)Cc1ccc(C(=O)O)cc1 | inactive: 0.983 |
| CS(=O)(=O)c1ncc(Cl)c(C(=O)NCCc2ccc(S(N)(=O)=O)cc2)n1 | inactive: 0.998 |
| C[C@@H]1CN([C@H](C)CO)C(=O)c2cccc(NC(=O)C3CCCCC3)c2O[C@@H]1CN(C)Cc1ccc(Oc2ccccc2)cc1 | inactive: 0.924 |
| CN(C)CCCNC(=O)C[C@H]1CC[C@@H]2[C@@H](COc3ccc(NS(C)(=O)=O)cc3C(=O)N2C)O1 | inactive: 0.989 |
| C[C@H](CO)N1C[C@H](C)[C@@H](CN(C)CC2CCCCC2)Oc2ccc(NC(=O)CCN3CCOCC3)cc2CC1=O | inactive: 0.978 |
| C[C@H](NC(=O)C[C@@H]1C=C[C@@H](NC(=O)CN2CCOCC2)[C@H](CO)O1)c1ccccc1 | inactive: 0.994 |
| Cc1noc(C)c1NC(=O)N(C)C[C@@H]1OCCCC[C@@H](C)Oc2ccc(NS(=O)(=O)c3cccs3)cc2C(=O)N([C@H](C)CO)C[C@@H]1C | inactive: 0.993 |
| N=C(N)NCCC(=O)O | inactive: 1.03 |
| C[C@H]1CN([C@@H](C)CO)C(=O)Cc2cc(NC(=O)Nc3ccc(C(F)(F)F)cc3)ccc2O[C@H]1CN(C)CC1CCCCC1 | inactive: 0.974 |
| Cc1noc(C)c1S(=O)(=O)Nc1ccc2c(c1)C(=O)N([C@@H](C)CO)C[C@@H](C)[C@@H](CN(C)C(=O)NC1CCCCC1)O2 | inactive: 0.979 |
| C[C@H]1CN([C@@H](C)CO)C(=O)c2cc(NC(=O)Cc3cn(C)c4ccccc34)ccc2O[C@H]1CN(C)Cc1ccc(Oc2ccccc2)cc1 | inactive: 1 |
| C[C@H]1CN([C@@H](C)CO)C(=O)Cc2cc(NC(=O)NC3CCCCC3)ccc2O[C@@H]1CN(C)S(C)(=O)=O | inactive: 0.939 |
| CCCNC(=O)N1C[C@@H](O)COC[C@H]2O[C@H](CC(=O)N3CCN(C)CC3)CC[C@@H]21 | inactive: 0.965 |
| CNCc1nc(C(C)C)no1 | inactive: 1.02 |
| C[C@@H]1CN([C@H](C)CO)C(=O)Cc2cc(NS(C)(=O)=O)ccc2O[C@@H]1CN(C)S(=O)(=O)c1cn(C)cn1 | inactive: 1.02 |

| Compound | relative growth |
| --- | --- |
| C[C@H]1CN([C@@H](C)CO)C(=O)c2cccc(NC(=O)c3cnccn3)c2O[C@@H]1CN(C)S(=O)(=O)c1cn(C)cn1 | inactive: 0.993 |
| C[C@H]1CN([C@@H](C)CO)C(=O)CCCn2cc(nn2)CO[C@H]1CN(C)S(=O)(=O)c1ccc(Cl)cc1 | inactive: 0.936 |
| C[C@@H]1CCCCO[C@@H](CN(C)C(=O)Nc2ccc(F)cc2)[C@@H](C)CN([C@@H](C)CO)C(=O)c2cc(NC(=O)Nc3ccccc3)ccc2O1 | inactive: 1.03 |
| C=C(C)/C=C1/C=CC(=O)C(C)=C1 | inactive: 1.03 |
| C[C@H]1CN([C@@H](C)CO)C(=O)c2cccc(NS(=O)(=O)c3ccccc3)c2O[C@@H]1CN(C)Cc1ccc(Cl)c(Cl)c1 | inactive: 0.973 |
| C[C@H]1CN([C@@H](C)CO)C(=O)Cc2cc(NC(=O)Cc3ccccc3)ccc2O[C@@H]1CN(C)Cc1ccc(C(F)(F)F)cc1 | inactive: 1.07 |
| O=C1CC(c2ccc(O)cc2)Oc2cc(O)cc(O)c21 (stereo not drawn) | inactive: 0.969 |
| C[C@@H]1CCCCO[C@@H](CN(C)S(=O)(=O)c2ccccc2)[C@@H](C)CN([C@H](C)CO)C(=O)c2cc(NC(=O)Nc3ccc4c(c3)OCO4)ccc2O1 | inactive: 1.04 |
| COc1ccc(NC(=O)N(C)C[C@H]2Oc3ccc(NC(=O)Nc4ccc(C(F)(F)F)cc4)cc3C(=O)N([C@@H](C)CO)C[C@@H]2C)cc1 | inactive: 0.959 |
| O=C1NC(=O)NC2(N1)C(=O)Nc1ccccc12 | inactive: 0.967 |
| C[C@@H]1CCCCO[C@@H](CN(C)S(=O)(=O)c2cccs2)[C@H](C)CN([C@@H](C)CO)C(=O)c2cc(NS(C)(=O)=O)ccc2O1 | inactive: 1 |
| C[C@H]1O[C@H](O[C@H]2[C@H](O)[C@@H](O)[C@@H](O[C@H]3[C@H](O)[C@@H](O)[C@H](O)O[C@@H]3CO)O[C@@H]2CO)[C@H](O)[C@@H](O)[C@@H]1N[C@H]1C=C(CO)[C@@H](O)[C@H](O)[C@H]1O | inactive: 1.01 |
| Cc1noc(C)c1S(=O)(=O)N(C)C[C@@H]1Oc2ccc(NC(=O)Cn3cnnn3)cc2CC(=O)N([C@H](C)CO)C[C@@H]1C | inactive: 1.01 |
| CN1CCN(C(=O)C[C@@H]2CC[C@H](NC(=O)c3ccc4c(c3)OCO4)[C@H](CO)O2)CC1 | inactive: 0.987 |
| COc1ccc(-c2cnc3c(c2)C(=O)N([C@H](C)CO)C[C@H](C)[C@H](CN(C)Cc2cccc(C(F)(F)F)c2)O3)cc1 | inactive: 0.992 |
| C[C@@H]1CN([C@@H](C)CO)C(=O)c2cccc(NS(=O)(=O)c3ccc(F)cc3)c2O[C@H]1CN(C)Cc1ccc(-c2ccccc2)cc1 | inactive: 1.01 |
| CCS(=O)(=O)N1C[C@]2(CCN(CC2)S(=O)(=O)c2ccccc2)c2c(n(c3cc(ccc23)OC)C)[C@@H]1CO | inactive: 0.988 |
| C[C@@H]1CN([C@@H](C)CO)C(=O)Cc2cc(NC(=O)C3CC3)ccc2O[C@@H]1CN(C)Cc1ccc(Oc2ccccc2)cc1 | inactive: 0.973 |
| Cc1ccc(S(=O)(=O)N(C)C[C@@H]2Oc3ccc(NC(=O)CCN4CCOCC4)cc3CC(=O)N([C@@H](C)CO)C[C@H]2C)cc1 | inactive: 1.03 |
| Cn1cnc(S(=O)(=O)N2C[C@@H](O)COC[C@@H]3O[C@@H](CC(=O)NCc4ccc(F)cc4)CC[C@H]32)c1 | inactive: 1.01 |

| Compound | relative growth |
| --- | --- |
| COc1ccc(CN(C)C[C@H]2OCCCC[C@H](C)Oc3ccc(NC(=O)NC(C)C)cc3C(=O)N([C@H](C)CO)C[C@@H]2C)cc1 | inactive: 1.03 |
| C[C@@H]1CN([C@H](C)CO)C(=O)c2cc(NC(=O)CCC(F)(F)F)ccc2O[C@@H](C)CCCCO[C@@H]1CN(C)S(=O)(=O)c1ccccc1 | inactive: 1 |
| C[C@H]1CCCCO[C@@H](CN(C)C(=O)Nc2ccc3c(c2)OCO3)[C@@H](C)CN([C@@H](C)CO)C(=O)c2cc(NC(=O)C3CCCCC3)ccc2O1 | inactive: 0.989 |
| C[C@@H]1CN([C@H](C)CO)C(=O)c2cc(NC(=O)c3ccccc3)ccc2O[C@@H](C)CCCCO[C@H]1CN(C)S(=O)(=O)c1ccccc1 | inactive: 1.02 |
| COc1ccc(S(=O)(=O)Nc2ccc3c(c2)CC(=O)N([C@@H](C)CO)C[C@@H](C)[C@H](CN(C)CC2CC2)O3)cc1 | inactive: 1.01 |
| C[C@@H]1CCCCO[C@H](CN(C)S(=O)(=O)c2cn(C)cn2)[C@H](C)CN([C@@H](C)CO)C(=O)c2cc(NS(=O)(=O)c3ccccc3)ccc2O1 | inactive: 1.01 |
| C[C@H]1CCCCO[C@H](CN(C)C(=O)Nc2cccc3ccccc23)[C@@H](C)CN([C@@H](C)CO)C(=O)c2cc(NS(=O)(=O)c3cccs3)ccc2O1 | inactive: 0.959 |
| Cc1cc(NC(=O)[C@@H]2CCCN2)no1 | inactive: 1.01 |
| CC(C)NC(=O)Nc1ccc2c(c1)C(=O)N([C@H](C)CO)C[C@@H](C)[C@@H](CN(C)C(=O)Nc1ccc(C(F)(F)F)cc1)OCCCC[C@@H](C)O2 | inactive: 1.08 |
| NCc1ccc(C(=O)N2CCCC2)cc1 | inactive: 1.01 |
| C[C@@H]1CN([C@@H](C)CO)C(=O)c2cccc(NC(=O)Nc3ccc(C(F)(F)F)cc3)c2O[C@@H]1CN(C)Cc1ccc(C(F)(F)F)cc1 | inactive: 1.03 |
| COc1ccc(S(=O)(=O)N(C)C[C@@H]2Oc3c(NC(=O)Nc4cccc5ccccc45)cccc3C(=O)N([C@@H](C)CO)C[C@H]2C)c(OC)c1 | inactive: 0.836 |
| COc1ccc(S(=O)(=O)Nc2ccc3c(c2)CC(=O)N([C@@H](C)CO)C[C@@H](C)[C@@H](CN(C)S(=O)(=O)c2ccc(OC)cc2)O3)cc1 | inactive: 1.03 |
| C[C@@H]1CN([C@@H](C)CO)C(=O)c2cccc(NS(=O)(=O)c3cn(C)cn3)c2O[C@@H]1CN(C)S(=O)(=O)c1ccc(F)cc1 | inactive: 0.989 |
| C[C@H]1CCCCO[C@@H](CN(C)C(=O)Nc2ccc(C(F)(F)F)cc2)[C@@H](C)CN([C@@H](C)CO)C(=O)c2cc(NC(=O)Nc3cccc4ccccc34)ccc2O1 | inactive: 1.03 |
| C[C@@H]1CN([C@H](C)CO)C(=O)Cc2cc(NS(=O)(=O)c3ccc(F)cc3)ccc2O[C@H]1CN(C)S(C)(=O)=O | inactive: 0.976 |
| COc1ccc(NC(=O)Nc2ccc3c(c2)C(=O)N([C@H](C)CO)C[C@@H](C)[C@@H](CN(C)Cc2ccc(-c4ccccc4)cc2)O3)cc1 | inactive: 1.04 |
| COc1ccc(NC(=O)N2C[C@H](O)COC[C@@H]3O[C@H](CC(=O)NCc4ccccc4OC)CC[C@H]32)cc1 | inactive: 0.984 |
